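Growth conditions: 96-well plates. Treatment: test compound, 48 hours, 5 concentrations. Analysis: linear interpolation between bracketing concentrations; unreached endpoints set to highest concentration. GI50 = concentration required for 50% inhibition of growth.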 Certain results were filed several times, with different values. This list holds those alone. There may be further records. For part of these data: A record mostly stands for its own series of concentrations, which the source does not state; some values may only mark the edge of a range.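 Definition used: TGI = concentration required for complete inhibition of growth.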 For part of these data: Results that share an entry repeat one measurement across runs, samples, wells, individuals or studies. Records carry a tag for their origin. The letters are not those of the source and start again with each entry.
Key:
Assay in all cases: inhibition of tumour cell growth, NCI panel, 48 h
CCRF-CEM leukemia = test system: CCRF-CEM leukemia
SR leukemia = test system: SR leukemia
SK-MEL-2 melanoma = test system: SK-MEL-2 melanoma
OVCAR-3 ovarian = test system: OVCAR-3 ovarian
A498 renal = test system: A498 renal
COLO 205 colon = test system: COLO 205 colon
DMS 114 small cell lung = test system: DMS 114 small cell lung
XF 498 CNS = test system: XF 498 CNS
RPMI-8226 leukemia = test system: RPMI-8226 leukemia
UACC-62 melanoma = test system: UACC-62 melanoma
KM12 colon = test system: KM12 colon
PC-3 prostate = test system: PC-3 prostate
HCT-15 colon = test system: HCT-15 colon
SW-620 colon = test system: SW-620 colon
SNB-75 CNS = test system: SNB-75 CNS
SF-295 CNS = test system: SF-295 CNS
MCF7 breast = test system: MCF7 breast
LOX IMVI melanoma = test system: LOX IMVI melanoma
DLD-1 colon = test system: DLD-1 colon
M19-MEL melanoma = test system: M19-MEL melanoma
MOLT-4 leukemia = test system: MOLT-4 leukemia
RXF 393 renal = test system: RXF 393 renal
786-0 renal = test system: 786-0 renal
K-562 leukemia = test system: K-562 leukemia
IGROV1 ovarian = test system: IGROV1 ovarian
OVCAR-4 ovarian = test system: OVCAR-4 ovarian
TK-10 renal = test system: TK-10 renal
HOP-92 NSCLC = test system: HOP-92 NSCLC
HOP-62 NSCLC = test system: HOP-62 NSCLC
LXFL 529 NSCLC = test system: LXFL 529 NSCLC
DMS 273 small cell lung = test system: DMS 273 small cell lung
SF-268 CNS = test system: SF-268 CNS
RXF-631 renal = test system: RXF-631 renal
NCI-H460 lung = test system: NCI-H460 lung
SNB-19 CNS = test system: SNB-19 CNS
SK-MEL-28 melanoma = test system: SK-MEL-28 melanoma
UACC-257 melanoma = test system: UACC-257 melanoma
NCI-H226 lung = test system: NCI-H226 lung
UO-31 renal = test system: UO-31 renal
HCT-116 colon = test system: HCT-116 colon
CAKI-1 renal = test system: CAKI-1 renal
HCC-2998 colon = test system: HCC-2998 colon
A549 NSCLC = test system: A549 NSCLC
MALME-3M melanoma = test system: MALME-3M melanoma
U251 CNS = test system: U251 CNS
HT29 colon = test system: HT29 colon
HL-60(TB) leukemia = test system: HL-60(TB) leukemia
M14 melanoma = test system: M14 melanoma
NCI-H23 lung = test system: NCI-H23 lung
SN12C renal = test system: SN12C renal
EKVX NSCLC = test system: EKVX NSCLC
OVCAR-5 ovarian = test system: OVCAR-5 ovarian
ACHN renal = test system: ACHN renal
OVCAR-8 ovarian = test system: OVCAR-8 ovarian

`CC[C@@]1(O)C(=O)OCc2c1cc1n(c2=O)Cc2cc3c(N)cccc3nc2-1` was tested, and the TGI (CCRF-CEM leukemia) was 5.03 nM and 208 nM and the TGI (SR leukemia) was 11.9 nM and > 4.84 µM.
With `Cc1ccc(/C=C2\CNC/C(=C\c3ccc(C)cc3)C2=O)cc1` the TGI (SK-MEL-2 melanoma) was 3.74 µM and > 62.4 µM and the TGI (OVCAR-3 ovarian) was 4.56 µM and > 100 µM.
In the case of `CC(C)(C)CC(C)(C)c1ccc(OCCOCC[N+](C)(C)Cc2ccccc2)cc1`, the TGI (A498 renal) is reported as 49.2 µM [sample A] and 4.12 µM [sample B] and the TGI (SR leukemia) is reported as 4.36 µM [sample A] and > 100 µM [sample B].
In the case of `Cc1cc(NC(=O)NC(=O)c2ccccc2N(C)C)ccc1Oc1ncc(Br)cn1`, the TGI (COLO 205 colon) is reported as 1.47 µM and 33.1 µM, the TGI (DMS 114 small cell lung) is reported as 654 nM and > 100 µM and the TGI (XF 498 CNS) is reported as 2.06 µM and > 100 µM. The TGI (SR leukemia) was 858 nM and 19.2 µM.
For `CC[C@H](C)[C@H](NC(=O)[C@H]1CCCCN1C)C(=O)N(C)[C@H](C[C@@H](OC(C)=O)c1nc(C(=O)N[C@@H](Cc2ccccc2)C[C@H](C)C(=O)OC)cs1)C(C)C`, the GI50 (RPMI-8226 leukemia) was 0.226 nM and 2.5 nM, the GI50 (UACC-62 melanoma) was 0.0777 nM and 2.5 nM and the GI50 (KM12 colon) was 0.158 nM and 2.5 nM. The GI50 (PC-3 prostate) was 0.162 nM and 2.5 nM, the TGI (HCT-15 colon) was 27.5 nM and > 25 µM and the GI50 (SW-620 colon) was 0.225 nM and 2.5 nM. For the same molecule, the TGI (SNB-75 CNS) was 70.6 nM and 21.5 µM, the GI50 (SF-295 CNS) was 0.219 nM and 2.5 nM and the GI50 (MCF7 breast) was 0.0433 nM and 2.5 nM. The GI50 (SR leukemia) was 0.0785 nM and 2.5 nM.
`C=CC1=CC(C)C[C@]1(O)C(=O)OC` (some centres undefined) was tested, and the TGI (LOX IMVI melanoma) was < 10 nM and > 100 µM, the TGI (COLO 205 colon) was < 10 nM and > 100 µM and the TGI (DLD-1 colon) was < 10 nM and > 100 µM. The TGI (M19-MEL melanoma) was < 10 nM and > 100 µM, the TGI (MOLT-4 leukemia) was < 10 nM and > 100 µM and the TGI (RXF 393 renal) was < 10 nM and > 100 µM. For the same molecule, the TGI (786-0 renal) was < 10 nM and > 100 µM, the TGI (K-562 leukemia) was < 10 nM and > 100 µM and the TGI (SK-MEL-2 melanoma) was < 10 nM and > 100 µM. The TGI (IGROV1 ovarian) was < 10 nM and > 100 µM, the TGI (OVCAR-4 ovarian) was < 10 nM and > 100 µM and the TGI (DMS 114 small cell lung) was < 10 nM and > 100 µM. The TGI (TK-10 renal) was < 10 nM and > 100 µM, the TGI (HOP-92 NSCLC) was < 10 nM and > 100 µM and the TGI (HOP-62 NSCLC) was < 10 nM and > 100 µM. The TGI (LXFL 529 NSCLC) was < 10 nM and > 100 µM, the TGI (OVCAR-3 ovarian) was < 10 nM and > 100 µM and the TGI (DMS 273 small cell lung) was < 10 nM and > 100 µM. For the same molecule, the TGI (SF-268 CNS) was < 10 nM and > 100 µM, the TGI (UACC-62 melanoma) was < 10 nM and > 100 µM and the TGI (RXF-631 renal) was < 10 nM and > 100 µM. For the same molecule, the TGI (NCI-H460 lung) was < 10 nM and > 100 µM, the TGI (SNB-19 CNS) was < 10 nM and > 100 µM and the TGI (SK-MEL-28 melanoma) was < 10 nM and > 100 µM. The TGI (XF 498 CNS) was < 10 nM and > 100 µM, the TGI (UACC-257 melanoma) was < 10 nM and > 100 µM and the TGI (NCI-H226 lung) was < 10 nM and > 100 µM. The TGI (UO-31 renal) was < 10 nM and > 100 µM, the TGI (KM12 colon) was < 10 nM and > 100 µM and the TGI (HCT-116 colon) was < 10 nM and > 100 µM. The TGI (CAKI-1 renal) was < 10 nM and > 100 µM, the TGI (HCC-2998 colon) was < 10 nM and > 100 µM and the TGI (A549 NSCLC) was < 10 nM and > 100 µM. The TGI (MALME-3M melanoma) was < 10 nM and > 100 µM, the TGI (U251 CNS) was < 10 nM and > 100 µM and the TGI (HT29 colon) was < 10 nM and > 100 µM. For the same molecule, the TGI (CCRF-CEM leukemia) was < 10 nM and > 100 µM, the TGI (HL-60(TB) leukemia) was < 10 nM and > 100 µM and the TGI (SW-620 colon) was < 10 nM and > 100 µM. For the same molecule, the TGI (M14 melanoma) was < 10 nM and > 100 µM, the TGI (SNB-75 CNS) was < 10 nM and > 100 µM and the TGI (NCI-H23 lung) was < 10 nM and > 100 µM. For the same molecule, the TGI (SN12C renal) was < 10 nM and > 100 µM, the TGI (EKVX NSCLC) was < 10 nM and > 100 µM and the TGI (A498 renal) was < 10 nM and > 100 µM. For the same molecule, the TGI (OVCAR-5 ovarian) was < 10 nM and > 100 µM, the TGI (SF-295 CNS) was < 10 nM and > 100 µM and the TGI (ACHN renal) was < 10 nM and > 100 µM. For the same molecule, the TGI (OVCAR-8 ovarian) was < 10 nM and > 100 µM.

— PubChem BioAssay (NCI)
